{"source": "paper PMC9911399", "about": "“Two distinct binding modes provide the RNA-binding protein RbFox with extraordinary sequence specificity”", "binders": {"B1": {"name": "CUAUGAC (DNA:RNA)", "RNA": "GGGAGACCGGAAUUCAGAUUGUCCCUAUGACUUAAAUCCCGUCGUAGCCACCA", "DNA 1": "CAATCTGAATTCCGGTCTCCC", "DNA 2": "TGGTGGCTACGACGGGATT"}, "B2": {"name": "CCCCGAC (DNA:RNA)", "RNA": "B1 RNA with U26C, A27C, U28C", "DNA 1": "CAATCTGAATTCCGGTCTCCC", "DNA 2": "TGGTGGCTACGACGGGATT"}, "B3": {"name": "UGGUGAC (DNA:RNA)", "RNA": "B1 RNA with C25U, U26G, A27G", "DNA 1": "CAATCTGAATTCCGGTCTCCC", "DNA 2": "TGGTGGCTACGACGGGATT"}, "B4": {"name": "CUCCCUA (DNA:RNA)", "RNA": "B1 RNA with A27C, U28C, G29C, A30U, C31A", "DNA 1": "CAATCTGAATTCCGGTCTCCC", "DNA 2": "TGGTGGCTACGACGGGATT"}, "B5": {"name": "UGCGCCA (DNA:RNA)", "RNA": "GGGAGACCGGAAUUCAGAUUGUCCUGCGCCAUUAAAUCCCGUCGUAGCCACCA", "DNA 1": "CAATCTGAATTCCGGTCTCCC", "DNA 2": "TGGTGGCTACGACGGGATT"}, "B6": {"name": "GAUUAGG (DNA:RNA)", "RNA": "B1 RNA with C25G, U26A, A27U, G29A, A30G, C31G", "DNA 1": "CAATCTGAATTCCGGTCTCCC", "DNA 2": "TGGTGGCTACGACGGGATT"}, "B7": {"name": "UUUUGUA (DNA:RNA)", "RNA": "B1 RNA with C25U, A27U, A30U, C31A", "DNA 1": "CAATCTGAATTCCGGTCTCCC", "DNA 2": "TGGTGGCTACGACGGGATT"}, "B8": {"name": "CCGAGUA (DNA:RNA)", "RNA": "B1 RNA with U26C, A27G, U28A, A30U, C31A", "DNA 1": "CAATCTGAATTCCGGTCTCCC", "DNA 2": "TGGTGGCTACGACGGGATT"}, "B9": {"name": "AGAUCAG (DNA:RNA)", "RNA": "B1 RNA with C25A, U26G, G29C, C31G", "DNA 1": "CAATCTGAATTCCGGTCTCCC", "DNA 2": "TGGTGGCTACGACGGGATT"}, "B10": {"name": "AUUUUCA (DNA:RNA)", "RNA": "B1 RNA with C25A, A27U, G29U, A30C, C31A", "DNA 1": "CAATCTGAATTCCGGTCTCCC", "DNA 2": "TGGTGGCTACGACGGGATT"}, "B11": {"name": "CUGUUUG (DNA:RNA)", "RNA": "B1 RNA with A27G, G29U, A30U, C31G", "DNA 1": "CAATCTGAATTCCGGTCTCCC", "DNA 2": "TGGTGGCTACGACGGGATT"}, "B12": {"name": "CCCAUUU (DNA:RNA)", "RNA": "B1 RNA with U26C, A27C, U28A, G29U, A30U, C31U", "DNA 1": "CAATCTGAATTCCGGTCTCCC", "DNA 2": "TGGTGGCTACGACGGGATT"}, "B13": {"name": "UGUUUCG (DNA:RNA)", "RNA": "B5 RNA with C27U, G28U, C29U, A31G", "DNA 1": "CAATCTGAATTCCGGTCTCCC", "DNA 2": "TGGTGGCTACGACGGGATT"}, "B14": {"name": "GGUCAAA (DNA:RNA)", "RNA": "B5 RNA with U25G, C27U, G28C, C29A, C30A", "DNA 1": "CAATCTGAATTCCGGTCTCCC", "DNA 2": "TGGTGGCTACGACGGGATT"}, "B15": {"name": "CAGUAGU (DNA:RNA)", "RNA": "B1 RNA with U26A, A27G, G29A, A30G, C31U", "DNA 1": "CAATCTGAATTCCGGTCTCCC", "DNA 2": "TGGTGGCTACGACGGGATT"}, "B16": {"name": "ACCCUAC (DNA:RNA)", "RNA": "B1 RNA with C25A, U26C, A27C, U28C, G29U", "DNA 1": "CAATCTGAATTCCGGTCTCCC", "DNA 2": "TGGTGGCTACGACGGGATT"}, "B17": {"name": "CCUCGGC (DNA:RNA)", "RNA": "B1 RNA with U26C, A27U, U28C, A30G", "DNA 1": "CAATCTGAATTCCGGTCTCCC", "DNA 2": "TGGTGGCTACGACGGGATT"}, "B18": {"name": "ACUGGAA (DNA:RNA)", "RNA": "B1 RNA with C25A, U26C, A27U, U28G, C31A", "DNA 1": "CAATCTGAATTCCGGTCTCCC", "DNA 2": "TGGTGGCTACGACGGGATT"}, "B19": {"name": "AUCUCUA (DNA:RNA)", "RNA": "B5 RNA with U25A, G26U, G28U, C30U", "DNA 1": "CAATCTGAATTCCGGTCTCCC", "DNA 2": "TGGTGGCTACGACGGGATT"}, "B20": {"name": "CAAUUAG (DNA:RNA)", "RNA": "B1 RNA with U26A, G29U, C31G", "DNA 1": "CAATCTGAATTCCGGTCTCCC", "DNA 2": "TGGTGGCTACGACGGGATT"}, "B21": {"name": "CAUCUUU (DNA:RNA)", "RNA": "B1 RNA with U26A, A27U, U28C, G29U, A30U, C31U", "DNA 1": "CAATCTGAATTCCGGTCTCCC", "DNA 2": "TGGTGGCTACGACGGGATT"}, "B22": {"name": "CUUCCCG (DNA:RNA)", "RNA": "B1 RNA with A27U, U28C, G29C, A30C, C31G", "DNA 1": "CAATCTGAATTCCGGTCTCCC", "DNA 2": "TGGTGGCTACGACGGGATT"}, "B23": {"name": "GAUUUAU (DNA:RNA)", "RNA": "B1 RNA with C25G, U26A, A27U, G29U, C31U", "DNA 1": "CAATCTGAATTCCGGTCTCCC", "DNA 2": "TGGTGGCTACGACGGGATT"}, "B24": {"name": "CUAGGAA (DNA:RNA)", "RNA": "B1 RNA with U28G, C31A", "DNA 1": "CAATCTGAATTCCGGTCTCCC", "DNA 2": "TGGTGGCTACGACGGGATT"}, "B25": {"name": "AGUUAGG (DNA:RNA)", "RNA": "B1 RNA with C25A, U26G, A27U, G29A, A30G, C31G", "DNA 1": "CAATCTGAATTCCGGTCTCCC", "DNA 2": "TGGTGGCTACGACGGGATT"}, "B26": {"name": "CGGUGUA (DNA:RNA)", "RNA": "B1 RNA with U26G, A27G, A30U, C31A", "DNA 1": "CAATCTGAATTCCGGTCTCCC", "DNA 2": "TGGTGGCTACGACGGGATT"}, "B27": {"name": "CCGGUUU (DNA:RNA)", "RNA": "B1 RNA with U26C, A27G, U28G, G29U, A30U, C31U", "DNA 1": "CAATCTGAATTCCGGTCTCCC", "DNA 2": "TGGTGGCTACGACGGGATT"}, "B28": {"name": "CCAAAUU (DNA:RNA)", "RNA": "B1 RNA with U26C, U28A, G29A, A30U, C31U", "DNA 1": "CAATCTGAATTCCGGTCTCCC", "DNA 2": "TGGTGGCTACGACGGGATT"}, "B29": {"name": "GCGUCGU (DNA:RNA)", "RNA": "B1 RNA with C25G, U26C, A27G, G29C, A30G, C31U", "DNA 1": "CAATCTGAATTCCGGTCTCCC", "DNA 2": "TGGTGGCTACGACGGGATT"}, "B30": {"name": "ACGUGAC (DNA:RNA)", "RNA": "B1 RNA with C25A, U26C, A27G", "DNA 1": "CAATCTGAATTCCGGTCTCCC", "DNA 2": "TGGTGGCTACGACGGGATT"}, "B31": {"name": "GACAGAC (DNA:RNA)", "RNA": "B1 RNA with C25G, U26A, A27C, U28A", "DNA 1": "CAATCTGAATTCCGGTCTCCC", "DNA 2": "TGGTGGCTACGACGGGATT"}}, "note": "Numbering of substitutions follows the chain as printed; changes in the protein carry UniProt numbers. This is one part of the list."}
{"molecular_target": "T1, RBFOX1 RRM RbFoxmut (Fox-RRM*) (Homo sapiens, UniProt Q9NWB1 109-208, R118D;E147R;N151S;E152T)", "T1 sequence": "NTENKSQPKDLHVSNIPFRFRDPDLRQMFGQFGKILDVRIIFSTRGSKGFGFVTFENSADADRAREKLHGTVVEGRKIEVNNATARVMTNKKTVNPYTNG", "assay": "EMSA; HiTS-Eq, 1 nM pool, 10 min; buffer printed only for the single-RNA assays: 10 mM Tris pH 7.5, 150 mM NaCl, 3.4 mM EDTA, 0.001% NP-40, 30 C", "settings": "tags: His6 N-terminal (pET28a); label: 5' 32P", "summary_of_the_method": "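Relative association constants, normalised to the cognate motif, were derived by comparing read counts of each RNA species with those of the control reaction. The RNA sequenced was the free fraction, separated by 8% native PAGE after a 10 min equilibration in 50 µL of 1 nM 5′-radiolabelled RNA (7 randomized nucleotides) with increasing concentrations of purified wild-type or mutant RbFox RRM.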"}
{"binder": "B1", "binding signal": "0.0722 KA relative to UGCAUGU"}
{"binder": "B2", "binding signal": "0.116 KA relative to UGCAUGU"}
{"binder": "B3", "binding signal": "0.0583 KA relative to UGCAUGU"}
{"binder": "B4", "binding signal": "0.0781 KA relative to UGCAUGU"}
{"binder": "B5", "binding signal": "0.096 KA relative to UGCAUGU"}
{"binder": "B6", "binding signal": "0.0809 KA relative to UGCAUGU"}
{"binder": "B7", "binding signal": "0.212 KA relative to UGCAUGU"}
{"binder": "B8", "binding signal": "0.139 KA relative to UGCAUGU"}
{"binder": "B9", "binding signal": "0.0757 KA relative to UGCAUGU"}
{"binder": "B10", "binding signal": "0.105 KA relative to UGCAUGU"}
{"binder": "B11", "binding signal": "0.75 KA relative to UGCAUGU"}
{"binder": "B12", "binding signal": "0.0746 KA relative to UGCAUGU"}
{"binder": "B13", "binding signal": "0.22 KA relative to UGCAUGU"}
{"binder": "B14", "binding signal": "0.0689 KA relative to UGCAUGU"}
{"binder": "B15", "binding signal": "0.133 KA relative to UGCAUGU"}
{"binder": "B16", "binding signal": "0.0918 KA relative to UGCAUGU"}
{"binder": "B17", "binding signal": "0.0976 KA relative to UGCAUGU"}
{"binder": "B18", "binding signal": "0.121 KA relative to UGCAUGU"}
{"binder": "B19", "binding signal": "0.139 KA relative to UGCAUGU"}
{"binder": "B20", "binding signal": "0.0887 KA relative to UGCAUGU"}
{"binder": "B21", "binding signal": "0.102 KA relative to UGCAUGU"}
{"binder": "B22", "binding signal": "0.0565 KA relative to UGCAUGU"}
{"binder": "B23", "binding signal": "0.106 KA relative to UGCAUGU"}
{"binder": "B24", "binding signal": "0.0892 KA relative to UGCAUGU"}
{"binder": "B25", "binding signal": "0.105 KA relative to UGCAUGU"}
{"binder": "B26", "binding signal": "0.187 KA relative to UGCAUGU"}
{"binder": "B27", "binding signal": "0.0689 KA relative to UGCAUGU"}
{"binder": "B28", "binding signal": "0.0728 KA relative to UGCAUGU"}
{"binder": "B29", "binding signal": "0.129 KA relative to UGCAUGU"}
{"binder": "B30", "binding signal": "0.0726 KA relative to UGCAUGU"}
{"binder": "B31", "binding signal": "0.0575 KA relative to UGCAUGU"}
